Test results as given in the antibiotic and cytotoxicity screens of Wong et al. (2023).
The list shows a part of the results.

What follows are molecules tested on S. aureus RN4220 (assay: growth inhibition call (relative growth <= 0.2)). Settings: 50 µM.

Growth inhibition call, inactive:
COc1ccc(S(=O)(=O)N2C[C@H](O)COC[C@H]3O[C@H](CC(=O)N[C@@H]4CCN(Cc5ccccc5)C4)CC[C@@H]32)cc1, C[C@@H]1CCCCO[C@H](CN(C)CC2CCCCC2)[C@H](C)CN([C@H](C)CO)C(=O)c2cc(NC(=O)NC3CCCCC3)ccc2O1, COc1ccccc1CN(C)C[C@H]1OCc2ccccc2-c2c(n(C)c3ccccc23)C(=O)N([C@@H](C)CO)C[C@H]1C, CC(C)N1CC2(CN(Cc3ccc(Cl)c(Cl)c3)C2)Oc2c(NC(=O)c3ccncc3)cccc2C1=O, COc1ccccc1NC(=O)N(C)C[C@@H]1Oc2ncc(Br)cc2C(=O)N([C@H](C)CO)C[C@H]1C, O=S(=O)(Cc1ccccc1)Nc1ccc(-c2ccc3c(cnn3-c3ccc(F)cc3)c2)c(C(F)(F)F)c1, COc1ccc(S(=O)(=O)Nc2cccc3c2O[C@@H](CN(C)C(=O)Nc2cccc4ccccc24)[C@@H](C)CN([C@H](C)CO)C3=O)cc1, Nc1nc(=O)c2nc(CNc3ccc(C(=O)NC(CCC(=O)O)C(=O)O)cc3)cnc2[nH]1 (stereo not given), C[C@H](CO)N1C[C@H](C)[C@H](CN(C)C(=O)C2CCOCC2)Oc2ncc(/C=C/c3ccccc3)cc2C1=O, Cc1ccc(S[C@]2(C(=O)NC3CC3)CC(=O)N(Cc3ccccc3C(F)(F)F)[C@@H]2c2ccc(CO)cc2I)cc1, C[C@H](CO)N1C[C@H](C)[C@@H](CN(C)Cc2ccc(Oc3ccccc3)cc2)OCc2ccccc2-c2c(n(C)c3ccccc23)C1=O, Cc1ccc(S(=O)(=O)N(C)C[C@@H]2OCCCC[C@H](C)Oc3ccc(NC(=O)Nc4ccc5c(c4)OCO5)cc3C(=O)N([C@H](C)CO)C[C@H]2C)cc1, COc1ccc(CN2C[C@H](C)[C@H](OC)CN(C)C(=O)c3cc(NC(=O)c4nc5ccccc5s4)ccc3OC[C@@H]2C)cc1, Cc1noc(C)c1NC(=O)Nc1ccc2c(c1)CC(=O)N([C@@H](C)CO)C[C@H](C)[C@H](CN(C)Cc1ccc(Cl)c(Cl)c1)O2, COc1ccc([Si](C)(C)[C@@H]2[C@@H](CCn3cc([C@H](O)c4ccccc4)nn3)O[C@]3(C(=O)N(Cc4cccc(N5CCOC5=O)c4)c4ccccc43)[C@H]2C)cc1, C[C@@H]1CN([C@H](C)CO)C(=O)c2cc(N(C)C)ccc2O[C@@H](C)CCCCO[C@H]1CN(C)Cc1ccc(C(=O)Nc2ccccc2N)cc1, CO[C@H]1CN(C)C(=O)c2ccc(NC(=O)C3CCOCC3)cc2OC[C@@H](C)N(Cc2cccnc2)C[C@@H]1C, CC(C)[C@H](NC(=O)[C@H](CC(=O)O)NC(=O)[C@H](CCCCN)NC(=O)[C@@H](N)CCCNC(=N)N)C(=O)N[C@@H](Cc1ccc(O)cc1)C(=O)O, O=C(NC[C@H]1CCCO1)c1ccc[nH]1, CN(C)S(=O)(=O)N1Cc2nnn(C)c2[C@H](COCC2CC2)C1, C[C@@H]1CN([C@@H](C)CO)C(=O)c2cc(NC(=O)Nc3ccc(C(F)(F)F)cc3)ccc2O[C@@H](C)CCCCO[C@@H]1CN(C)C, CS(=O)(=O)Nc1ccc2c(c1)[C@H]1C[C@@H](CC(=O)NCc3ccc(-c4ccccc4)cc3)O[C@@H](CO)[C@H]1O2, O=C(C[C@H]1CC[C@H](NS(=O)(=O)c2ccc(F)cc2)[C@@H](CO)O1)N1CCC(Cc2ccccc2)CC1, CC=Cc1ccc2n(c1=O)C[C@@H]1[C@@H](CO)[C@H](C(=O)NCCC)[C@H]2N1S(=O)(=O)c1cn(C)cn1, Cc1ccc(N2C[C@@H](N)CC2=O)cc1, C[C@@H]1CN([C@H](C)CO)C(=O)c2cc(NS(=O)(=O)c3cccs3)ccc2O[C@H]1CN(C)S(=O)(=O)c1cn(C)cn1, C[C@@H]1CN([C@H](C)CO)C(=O)c2cccc(NC(=O)c3cnccn3)c2O[C@@H]1CN(C)S(=O)(=O)c1ccc(Cl)cc1, NCC[C@H]1CC[C@@H](NC(=O)Nc2ccc(F)cc2)[C@@H](CO)O1, CC(=O)N1[C@H](CO)[C@@H](c2ccccc2)C12CN(C(=O)CN1CCOCC1)C2

Growth inhibition call, active:
NCC1OC(OC2C(CO)OC(OC3C(O)C(N)CC(N)C3OC3OC(CO)C(O)C(O)C3N)C2O)C(N)C(O)C1O.O=S(=O)(O)O (stereo not given)
